# Only a selection was taken, and the strongest signals are over-represented in it overall.
# Assays:
# Assay in all cases: glycan array binding signal (z-score within array); higher = stronger binding
# Details in all cases: glycan notation: IUPAC condensed, linker removed
# [1] = tested on: Neu5Ac(a2-3)Gal(b1-3)[Neu5Ac(a2-3)Gal(b1-4)]GlcNAc
# In short: (§1)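 From the Consortium for Functional Glycomics database, 3228 arrays were curated, keeping only those whose protein sequence was available. Binding is given as a within-array Z-score averaged across arrays sharing a protein sequence and across linkers. Negative Z-scores can be read as non-binding.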
# [2] = tested on: Neu5Ac(a2-3)Gal(b1-3)GalNAc(b1-4)[Neu5Ac(a2-3)]Gal(b1-4)Glc
# In short: as §1
# [3] = tested on: Neu5Ac(a2-3)Gal(b1-3)GalNAc
# In short: as §1
# [4] = tested on: Neu5Ac(a2-3)Gal(b1-3)GlcNAc(b1-3)Gal(b1-3)GlcNAc
# In short: as §1
# [5] = tested on: Neu5Ac(a2-3)Gal(b1-3)[Fuc(a1-4)]GlcNAc(b1-3)Gal(b1-4)[Fuc(a1-3)]GlcNAc
# In short: as §1
# [6] = tested on: Neu5Ac(a2-3)Gal(b1-3)GlcNAc
# In short: as §1
# [7] = tested on: Neu5Ac(a2-3)Gal(b1-3)GalNAc(b1-3)Gal(a1-4)Gal(b1-4)Glc
# In short: as §1
# [8] = tested on: Neu5Ac(a2-3)Gal(b1-3)GlcNAc(b1-2)Man(a1-3)[Neu5Ac(a2-3)Gal(b1-3)GlcNAc(b1-2)Man(a1-6)]Man(b1-4)GlcNAc(b1-4)GlcNAc
# In short: as §1
# [9] = tested on: Neu5Ac(a2-3)Gal(b1-3)[Neu5Ac(a2-6)]GlcNAc(b1-3)[Fuc(a1-3)[Gal(b1-4)]GlcNAc(b1-6)]Gal(b1-4)Glc
# In short: as §1
# [10] = tested on: Neu5Ac(a2-3)Gal(b1-3)GlcNAc6S
# In short: as §1
# Man(b1-4)GlcNAc = tested on: Man(b1-4)GlcNAc
# In short: as §1
# Man(a1-3)[Man(a1-6)]Man = tested on: Man(a1-3)[Man(a1-6)]Man
# In short: as §1
# [11] = tested on: Neu5Ac(a2-3)Gal(b1-3)GalNAc6S
# In short: as §1
# [12] = tested on: Man(a1-3)[Man(a1-6)]Man(b1-4)GlcNAc(b1-4)[Fuc(a1-6)]GlcNAc
# In short: as §1
# [13] = tested on: Neu5Ac(a2-3)Gal(b1-3)GalNAc(b1-3)Gal(b1-4)GlcNAc
# In short: as §1
# [14] = tested on: Neu5Ac(a2-3)Gal(b1-3)GlcNAc(b1-3)Gal(b1-4)GlcNAc
# In short: as §1
# [15] = tested on: Neu5Ac(a2-3)Gal(b1-3)[Fuc(a1-4)]GlcNAc
# In short: as §1
# [16] = tested on: Neu5Ac(a2-3)Gal(b1-3)[Neu5Ac(a2-6)]GalNAc
# In short: as §1
# [17] = tested on: Man(a1-3)[Man(a1-6)]Man(b1-4)GlcNAc(b1-4)GlcNAc
# In short: as §1
# [18] = tested on: Neu5Ac(a2-3)Gal(b1-3)GlcNAc(b1-3)GalNAc
# In short: as §1
substance,measurement,setting,value
NCAM1 (Homo sapiens) (chain not printed),glycan array binding signal (z-score),[1],-0.513
Siglec-2 (Homo sapiens) (chain not printed),glycan array binding signal (z-score),[2],-0.151
STIM-3 (Mus musculus) (chain not printed),glycan array binding signal (z-score),[3],0.549
same,glycan array binding signal (z-score),[4],-0.441
same,glycan array binding signal (z-score),[5],4.34
Galectin-8 C-terminal CRD (Homo sapiens) (chain not printed),glycan array binding signal (z-score),[6],0.344
M-Ficolin G221F A256V (Homo sapiens) (chain not printed),glycan array binding signal (z-score),[2],5.03
MBP (Homo sapiens) (chain not printed),glycan array binding signal (z-score),[7],-0.124
Thrombomodulin Extracellular (Homo sapiens) (chain not printed),glycan array binding signal (z-score),[7],-0.592
same,glycan array binding signal (z-score),[8],-0.014
same,glycan array binding signal (z-score),[6],-0.035
same,glycan array binding signal (z-score),[9],-0.554
Gal 8 long (Homo sapiens) (chain not printed),glycan array binding signal (z-score),[10],4.87
Gal 3 (Homo sapiens) (chain not printed),glycan array binding signal (z-score),Man(b1-4)GlcNAc,-0.255
same,glycan array binding signal (z-score),[7],-0.156
CLEC-2 (Homo sapiens) (chain not printed),glycan array binding signal (z-score),[3],0.075
M-Ficolin Y271F (Homo sapiens) (chain not printed),glycan array binding signal (z-score),Man(a1-3)[Man(a1-6)]Man,0.354
same,glycan array binding signal (z-score),[2],3.04
same,glycan array binding signal (z-score),[11],0.159
same,glycan array binding signal (z-score),[10],2.94
Meso764 (Homo sapiens) (chain not printed),glycan array binding signal (z-score),[12],-0.905
same,glycan array binding signal (z-score),Man(b1-4)GlcNAc,-0.215
same,glycan array binding signal (z-score),[13],-0.572
same,glycan array binding signal (z-score),[6],-0.042
Serum Amyloid P component (Homo sapiens) (chain not printed),glycan array binding signal (z-score),[4],1.67
M-Ficolin A256V (Homo sapiens) (chain not printed),glycan array binding signal (z-score),[2],6.81
same,glycan array binding signal (z-score),[8],-0.178
same,glycan array binding signal (z-score),[14],-0.149
same,glycan array binding signal (z-score),[15],-0.176
same,glycan array binding signal (z-score),[16],-0.136
M-Ficolin (Homo sapiens) (chain not printed),glycan array binding signal (z-score),[2],5.74
M-Ficolin G221F (Homo sapiens) (chain not printed),glycan array binding signal (z-score),[17],-0.155
same,glycan array binding signal (z-score),[2],6.38
same,glycan array binding signal (z-score),[11],-0.191
same,glycan array binding signal (z-score),[18],-0.159
VWF (Homo sapiens) (chain not printed),glycan array binding signal (z-score),[17],-0.243
same,glycan array binding signal (z-score),Man(a1-3)[Man(a1-6)]Man,-0.371
same,glycan array binding signal (z-score),[6],0.013
Gal 8-short (Homo sapiens) (chain not printed),glycan array binding signal (z-score),[2],1.62
same,glycan array binding signal (z-score),[4],1.59
FGF2 (chain not printed),glycan array binding signal (z-score),Man(a1-3)[Man(a1-6)]Man,-0.476
same,glycan array binding signal (z-score),[18],0.022
Angiogenin (Homo sapiens) (chain not printed),glycan array binding signal (z-score),[14],-1.54
same,glycan array binding signal (z-score),[5],-0.178
same,glycan array binding signal (z-score),[15],-1.28
Collectin K1 (Homo sapiens) (chain not printed),glycan array binding signal (z-score),Man(a1-3)[Man(a1-6)]Man,-0.241

# From the supplement of paper PMC8728848
